# From publication PMC5522071, “Preclinical development of G1T38: A novel, potent and selective inhibitor of cyclin dependent kinases 4/6 for use as an oral antineoplastic in patients with CDK4/6 sensitive tumors” (Oncotarget, 2017)
# What was measured:
# CDK2/Cyclin E = CDK2/Cyclin E (Homo sapiens, UniProt P24941)
# neutrophils = assay: Peripheral blood analysis, 28 days daily oral dosing; settings: 100 mg/kg, after 28 days of once daily oral dosing
# CDK2/Cyclin A = CDK2/Cyclin A (Homo sapiens, UniProt P24941)
# [1] = tested on: myeloid progenitors (Mac1+ Gr1+); assay: EdU incorporation in bone marrow; settings: both the 50 and 100 mg/kg cohorts, 7 days, 12 hours post-treatment
smiles,measurement,setting,value
"CC(C)N1CCN(c2ccc(Nc3ncc4cc5n(c4n3)C3(CCCCC3)CNC5=O)nc2)CC1.Cl.Cl [G1T38, 2′-((5-(4-isopropylpiperazin-1-yl)pyridin-2-yl)amino)-7′, 8′dihydro-6′Hspiro[cyclohexane1,9′ pyrazino[1′,2′:1,5]pyrrolo[2,3-d]pyrimidin]-6′-one di-hydrochloride]",selectivity for CDK4/ cyclin D1 than CDK2/cyclin E,CDK2/Cyclin E,> 1000 fold
same,decrease in neutrophils,neutrophils,48%
same,selectivity for CDK4/ cyclin D1 than CDK2/cyclin A,CDK2/Cyclin A,> 1000 fold
"CC(=O)c1c(C)c2cnc(Nc3ccc(N4CCNCC4)cn3)nc2n(C2CCCC2)c1=O [palbociclib, reference compound]",reduction in myeloid progenitor proliferation,[1],> 50%
